Test results as given in the supplement of paper PMC8728848.
The other results are listed elsewhere or left out.

Key:
Test in all cases: glycan array binding signal (z-score within array); higher = stronger binding
Details in all cases: glycan notation: IUPAC condensed, linker removed
[1] = target: Neu5Ac(a2-6)Gal(b1-4)GlcNAc(b1-2)Man(a1-6)[Gal(b1-4)GlcNAc(b1-2)Man(a1-3)]Man(b1-4)GlcNAc(b1-4)GlcNAc
Outline: (§1)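 The Consortium for Functional Glycomics database supplied 3228 glycan arrays, of which those lacking an available protein sequence were dropped. The binding signal, a within-array Z-score, was averaged across arrays of the same protein sequence and across linkers. Negative scores can be read as non-binding.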

[2] = target: Neu5Ac(a2-6)Gal(b1-4)GlcNAc(b1-2)Man(a1-6)[GlcNAc(b1-2)Man(a1-3)]Man(b1-4)GlcNAc(b1-4)GlcNAc
Outline: as §1

[3] = target: Neu5Ac(a2-6)Gal(b1-4)GlcNAc(b1-2)Man(a1-6)[Man(a1-3)]Man(b1-4)GlcNAc(b1-4)GlcNAc
Outline: as §1

[4] = target: Neu5Ac(a2-6)Gal(b1-4)GlcNAc(b1-2)[Neu5Ac(a2-6)Gal(b1-4)GlcNAc(b1-4)]Man(a1-3)[GlcNAc(b1-4)][Neu5Ac(a2-6)Gal(b1-4)GlcNAc(b1-2)[Neu5Ac(a2-6)Gal(b1-4)GlcNAc(b1-6)]Man(a1-6)]Man(b1-4)GlcNAc(b1-4)GlcNAc
Outline: as §1

[5] = target: Neu5Ac(a2-6)Gal(b1-4)GlcNAc(b1-2)[Neu5Ac(a2-6)Gal(b1-4)GlcNAc(b1-4)]Man(a1-3)[GlcNAc(b1-4)][Neu5Ac(a2-6)Gal(b1-4)GlcNAc(b1-4)Man(a1-6)]Man(b1-4)GlcNAc(b1-4)GlcNAc
Outline: as §1

[6] = target: Neu5Ac(a2-6)Gal(b1-4)GlcNAc(b1-2)[Neu5Ac(a2-6)Gal(b1-4)GlcNAc(b1-6)]Man(a1-6)[Neu5Ac(a2-6)Gal(b1-4)GlcNAc(b1-2)Man(a1-3)][GlcNAc(b1-4)]Man(b1-4)GlcNAc(b1-4)GlcNAc
Outline: as §1

[7] = target: Neu5Ac(a2-6)Gal(b1-4)GlcNAc(b1-3)Gal(b1-3)GlcNAc
Outline: as §1

[8] = target: Neu5Ac(a2-6)Gal(b1-4)GlcNAc(b1-3)Gal(b1-4)GlcNAc
Outline: as §1

[9] = target: Neu5Ac(a2-6)Gal(b1-4)GlcNAc(b1-3)Gal(b1-4)GlcNAc(b1-2)Man(a1-3)[Neu5Ac(a2-6)Gal(b1-4)GlcNAc(b1-3)Gal(b1-4)GlcNAc(b1-2)Man(a1-6)]GalNAc
Outline: as §1

[10] = target: Neu5Ac(a2-6)Gal(b1-4)GlcNAc(b1-3)Gal(b1-4)GlcNAc(b1-3)Gal(b1-4)GlcNAc
Outline: as §1

[11] = target: Neu5Ac(a2-6)Gal(b1-4)GlcNAc(b1-3)Gal(b1-4)GlcNAc(b1-3)Gal(b1-4)GlcNAc(b1-2)Man(a1-3)[Neu5Ac(a2-6)Gal(b1-4)GlcNAc(b1-3)Gal(b1-4)GlcNAc(b1-3)Gal(b1-4)GlcNAc(b1-2)Man(a1-6)]GalNAc
Outline: as §1

[12] = target: Neu5Ac(a2-6)Gal(b1-4)GlcNAc(b1-3)Gal(b1-4)GlcNAc(b1-3)GalNAc
Outline: as §1

[13] = target: Neu5Ac(a2-6)Gal(b1-4)GlcNAc(b1-3)Gal(b1-4)GlcNAc(b1-3)[Neu5Ac(a2-6)Gal(b1-4)GlcNAc(b1-3)Gal(b1-4)GlcNAc(b1-6)]GalNAc
Outline: as §1

[14] = target: Neu5Ac(a2-6)Gal(b1-4)GlcNAc(b1-3)Gal(b1-4)GlcNAc(b1-6)[Gal(b1-3)]GalNAc
Outline: as §1

[15] = target: Neu5Ac(a2-6)Gal(b1-4)GlcNAc(b1-3)Gal(b1-4)[Fuc(a1-3)]GlcNAc(b1-3)Gal(b1-4)[Fuc(a1-3)]GlcNAc
Outline: as §1

[16] = target: Neu5Ac(a2-6)Gal(b1-4)GlcNAc(b1-3)GalNAc
Outline: as §1

[17] = target: Neu5Ac(a2-6)Gal(b1-4)GlcNAc(b1-3)[Neu5Ac(a2-6)Gal(b1-4)GlcNAc(b1-6)]GalNAc
Outline: as §1

[18] = target: Neu5Ac(a2-6)Gal(b1-4)GlcNAc(b1-6)GalNAc
Outline: as §1

[19] = target: Neu5Ac(a2-6)Gal(b1-4)GlcNAc(b1-6)[Gal(b1-3)GlcNAc(b1-3)]Gal(b1-4)Glc
Outline: as §1

[20] = target: Neu5Ac(a2-6)Gal(b1-4)GlcNAc(b1-6)[Gal(b1-3)]GalNAc
Outline: as §1

[21] = target: Neu5Ac(a2-6)Gal(b1-4)GlcNAc6S
Outline: as §1

Neu5Ac(a2-6)GalNAc = target: Neu5Ac(a2-6)GalNAc
Outline: as §1

[22] = target: Neu5Ac(a2-6)GalNAc(b1-4)GlcNAc
Outline: as §1

[23] = target: Neu5Ac(a2-6)GalNAc(b1-4)GlcNAc6S
Outline: as §1

[24] = target: Neu5Ac(a2-6)GlcNAc(b1-4)GlcNAc
Outline: as §1

[25] = target: Neu5Ac(a2-6)GlcNAc(b1-4)GlcNAc(b1-4)GlcNAc
Outline: as §1

Neu5Ac(a2-8)Neu5Ac = target: Neu5Ac(a2-8)Neu5Ac
Outline: as §1

[26] = target: Neu5Ac(a2-8)Neu5Ac(a2-3)Gal(b1-3)GalNAc(b1-4)[Neu5Ac(a2-3)]Gal(b1-4)Glc
Outline: as §1

[27] = target: Neu5Ac(a2-8)Neu5Ac(a2-3)Gal(b1-3)GalNAc(b1-4)[Neu5Ac(a2-8)Neu5Ac(a2-3)]Gal(b1-4)Glc
Outline: as §1

[28] = target: Neu5Ac(a2-8)Neu5Ac(a2-3)Gal(b1-4)Glc
Outline: as §1

[29] = target: Neu5Ac(a2-8)Neu5Ac(a2-3)Gal(b1-4)GlcNAc
Outline: as §1

[30] = target: Neu5Ac(a2-8)Neu5Ac(a2-3)[Gal(b1-3)GalNAc(b1-4)]Gal(b1-4)Glc
Outline: as §1

[31] = target: Neu5Ac(a2-8)Neu5Ac(a2-3)[GalNAc(b1-4)]Gal(b1-4)Glc
Outline: as §1

[32] = target: Neu5Ac(a2-8)Neu5Ac(a2-8)Neu5Ac
Outline: as §1

[33] = target: Neu5Ac(a2-8)Neu5Ac(a2-8)Neu5Ac(a2-3)Gal(b1-4)Glc
Outline: as §1

[34] = target: Neu5Ac(a2-8)Neu5Ac(a2-8)Neu5Ac(a2-3)[Gal(b1-3)GalNAc(b1-4)]Gal(b1-4)Glc
Outline: as §1

[35] = target: Neu5Ac(a2-8)Neu5Ac(a2-8)Neu5Ac(a2-3)[GalNAc(b1-4)]Gal(b1-4)Glc
Outline: as §1

[36] = target: Neu5Ac(a2-8)Neu5Ac(a2-8)Neu5Ac(a2-8)Neu5Ac(a2-3)[GalNAc(b1-4)]Gal(b1-4)Glc
Outline: as §1

[37] = target: Neu5Ac(a2-8)Neu5Gc(a2-3)Gal(b1-4)GlcNAc
Outline: as §1

Neu5Ac(b1-6)GalNAc = target: Neu5Ac(b1-6)GalNAc
Outline: as §1

[38] = target: Neu5Ac(b2-6)Gal(b1-4)GlcNAc
Outline: as §1

Neu5Ac(b2-6)GalNAc = target: Neu5Ac(b2-6)GalNAc
Outline: as §1

[39] = target: Neu5Ac9Ac(a2-3)Gal(b1-3)GlcNAc
Outline: as §1

[40] = target: Neu5Ac9Ac(a2-3)Gal(b1-4)GlcNAc
Outline: as §1

[41] = target: Neu5Ac9Ac(a2-6)Gal(b1-4)GlcNAc
Outline: as §1

[42] = target: Neu5Gc(a2-3)Gal(b1-3)GlcNAc
Outline: as §1

[43] = target: Neu5Gc(a2-3)Gal(b1-3)[Fuc(a1-4)]GlcNAc
Outline: as §1

Neu5Gc(a2-3)Gal(b1-4)Glc = target: Neu5Gc(a2-3)Gal(b1-4)Glc
Outline: as §1

[44] = target: Neu5Gc(a2-3)Gal(b1-4)GlcNAc
Outline: as §1

[45] = target: Neu5Gc(a2-3)Gal(b1-4)GlcNAc(b1-3)Gal(b1-4)GlcNAc(b1-2)Man(a1-3)[Neu5Gc(a2-3)Gal(b1-4)GlcNAc(b1-3)Gal(b1-4)GlcNAc(b1-2)Man(a1-6)]Man(b1-4)GlcNAc(b1-4)GlcNAc
Outline: as §1

[46] = target: Neu5Gc(a2-3)Gal(b1-4)[Fuc(a1-3)]GlcNAc
Outline: as §1

[47] = target: Neu5Gc(a2-6)Gal(b1-4)GlcNAc
Outline: as §1

Neu5Gc(a2-6)GalNAc = target: Neu5Gc(a2-6)GalNAc
Outline: as §1

[48] = target: Neu5Gc(a2-8)Neu5Ac(a2-3)Gal(b1-4)GlcNAc
Outline: as §1

[49] = target: Neu5Gc(a2-8)Neu5Gc(a2-3)Gal(b1-4)GlcNAc
Outline: as §1

[50] = target: Neu5Gc(a2-8)Neu5Gc(a2-3)Gal(b1-4)GlcNAc(b1-3)Gal(b1-4)GlcNAc
Outline: as §1

[51] = target: Neu5Gc(a2-8)Neu5Gc(a2-6)Gal(b1-4)GlcNAc
Outline: as §1

[52] = target: Neu5Gc(b2-6)Gal(b1-4)GlcNAc
Outline: as §1

B1: HPA (Helix pomatia), Q2F1K8 (protein)
chain: MQAFYSGLLLLCVVAFAAAQRVQSGKIDCGNDAGWAKVPSDDPGRDNTRELAKNITFASPYCRPPVVLLSITQLDVEQSQNLRVIARLYSVSPTGFKASCYTWHNTKVYSMSISWISIENY
glycan array binding signal (z-score) [1]: 1.23
glycan array binding signal (z-score) [2]: -0.157
glycan array binding signal (z-score) [3]: -0.235
glycan array binding signal (z-score) [4]: -0.317
glycan array binding signal (z-score) [5]: -0.129
glycan array binding signal (z-score) [6]: -0.421
glycan array binding signal (z-score) [7]: -0.349
glycan array binding signal (z-score) [8]: -0.244
glycan array binding signal (z-score) [9]: 0.201
glycan array binding signal (z-score) [10]: -0.189
glycan array binding signal (z-score) [11]: 0.579
glycan array binding signal (z-score) [12]: -0.436
glycan array binding signal (z-score) [13]: 0.886
glycan array binding signal (z-score) [14]: 0.021
glycan array binding signal (z-score) [15]: 0.025
glycan array binding signal (z-score) [16]: 0.212
glycan array binding signal (z-score) [17]: -0.378
glycan array binding signal (z-score) [18]: -0.048
glycan array binding signal (z-score) [19]: -0.287
glycan array binding signal (z-score) [20]: 0.096
glycan array binding signal (z-score) [21]: -0.25
glycan array binding signal (z-score) (Neu5Ac(a2-6)GalNAc): -0.29
glycan array binding signal (z-score) [22]: -0.317
glycan array binding signal (z-score) [23]: -0.275
glycan array binding signal (z-score) [24]: -0.359
glycan array binding signal (z-score) [25]: -0.317
glycan array binding signal (z-score) (Neu5Ac(a2-8)Neu5Ac): -0.049
glycan array binding signal (z-score) [26]: -0.419
glycan array binding signal (z-score) [27]: -0.278
glycan array binding signal (z-score) [28]: -0.365
glycan array binding signal (z-score) [29]: -0.323
glycan array binding signal (z-score) [30]: -0.115
glycan array binding signal (z-score) [31]: 0.211
glycan array binding signal (z-score) [32]: -0.292
glycan array binding signal (z-score) [33]: -0.323
glycan array binding signal (z-score) [34]: 0.091
glycan array binding signal (z-score) [35]: 0.209
glycan array binding signal (z-score) [36]: 0.038
glycan array binding signal (z-score) [37]: -0.301
glycan array binding signal (z-score) (Neu5Ac(b1-6)GalNAc): -0.304
glycan array binding signal (z-score) [38]: -0.186
glycan array binding signal (z-score) (Neu5Ac(b2-6)GalNAc): -0.411
glycan array binding signal (z-score) [39]: -0.411
glycan array binding signal (z-score) [40]: -0.237
glycan array binding signal (z-score) [41]: -0.24
glycan array binding signal (z-score) [42]: -0.196
glycan array binding signal (z-score) [43]: -0.234
glycan array binding signal (z-score) (Neu5Gc(a2-3)Gal(b1-4)Glc): -0.112
glycan array binding signal (z-score) [44]: -0.191
glycan array binding signal (z-score) [45]: -0.085
glycan array binding signal (z-score) [46]: -0.212
glycan array binding signal (z-score) [47]: -0.167
glycan array binding signal (z-score) (Neu5Gc(a2-6)GalNAc): -0.334
glycan array binding signal (z-score) [48]: -0.25
glycan array binding signal (z-score) [49]: -0.34
glycan array binding signal (z-score) [50]: -0.262
glycan array binding signal (z-score) [51]: -0.288
glycan array binding signal (z-score) [52]: -0.249
